These results are taken from paper PMC12136788.

Sequences and labels used below:
T1: UNK ZnF1-3 (human, UniProt Q9C0B0 31-174)
T1 sequence: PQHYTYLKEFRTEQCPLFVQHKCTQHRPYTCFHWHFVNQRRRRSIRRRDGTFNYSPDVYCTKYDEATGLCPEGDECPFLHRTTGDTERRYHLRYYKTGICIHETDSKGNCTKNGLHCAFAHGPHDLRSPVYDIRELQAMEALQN

B1: chrX:67713009:67713010:-_ENSMUSG00000073139_ENSMUST00000101506|mus_hu|motif|central (ssRNA)
RNA: GGGAGUUCUACAGUCCGACGAUCUAAGGAGAGCAAAAAUAGUGGCUUUAGCUACAUUUUUUACACACUGAGCAGGAAAGUCGGAACCAUCCCGUUCCCCUGUACCCCAAAGAGAACAGGGCUUGCUGGAGGCCAGUGCCAAGGCAACAGAGGAUUGAGCAUCA
B2: chr1:58468927:58468928:-_ENSMUSG00000026034_ENSMUST00000148330|mus_mus|mus_mus_mus_hu_False|8_68 (ssRNA)
RNA: GGGAGUUCUACAGUCCGACGAUCAAUUACUGAAAAAGAUGUUCAUUACCUUAGCUAUGUACUUAAUUUAAUAAAGCACCCAAACAAAAUAAACAUGGCAAUAUAAAAAUGUUAAGAAUUUACAAAGAUUAAAAGCUUAACUUACAACAGAGGAUUGAGCAUCA
B3: chr7:127875444:127875445:+_ENSMUSG00000046096_ENSMUST00000060175|mus_mus|motif|central (ssRNA)
RNA: GGGAGUUCUACAGUCCGACGAUCACGUGUGUAAAGCAUUAGAGGGAAUAUUGUAUUGCUUAAGAGUUUGGUGAAGAUCGGCGGAUACAGAUAAAAUGCGAUUUUUAUGGAAGAGCAGAACUAGUGUUGUAAAUAGCCAAAACACAACAGAGGAUUGAGCAUCA
B4: 12196434_12199287_829_3pUTR_ENSMUSG00000039458_ENSMUST00000071993|mouse|control|control (ssRNA)
RNA: GGGAGUUCUACAGUCCGACGAUCGGGUAAGUGGCAAAGAAAGUUGUCGUUGAUGUUUGAAACGUGAUCCUUUCUGCUGGCCUCUGUCCAGUUUUGGCUUUUCCACAUAGAGAGGGUUUCUAAGUAACGUCUGUGCUUUGGGUUCAACAGAGGAUUGAGCAUCA
B5: chr14:22664367:22664368:+_ENSMUSG00000021771_ENSMUST00000022293|mus_hu|FALSE|FALSE (ssRNA)
RNA: GGGAGUUCUACAGUCCGACGAUCAGAGAGUGUAAGCUUCACACCAGGCCUCAGAGUCUGAGUAUAGCCUACUCCAAUUAAGCUAGAGUUGUUGACUUUUGCAGAAAUGGAAGCAGUGGGAUCCAACUGAUAUUUAGCUGCAAUCAACAGAGGAUUGAGCAUCA
B6: chr2:158287933:158287934:+_ENSMUSG00000027652_ENSMUST00000141497|mus_mus|motif|central (ssRNA)
RNA: GGGAGUUCUACAGUCCGACGAUCAAGCGGUUGCUCCAGCAUUGCCAGGAUGACACUGUUAUCCAAAACAAAGUACCGGAAACGGUGCUUGUUUAUGGUUGGCAGCCUGGAGUAUUUGAUCAGAGUGGUCUCAUUCACCAGACUCAACAGAGGAUUGAGCAUCA
B7: chr11:86991360:86991361:+_ENSMUSG00000018548_ENSMUST00000041282|mus_mus|FALSE|FALSE (ssRNA)
RNA: GGGAGUUCUACAGUCCGACGAUCUUCUCGAAUGAUAUUUUUUGUAGGAUCAUUGCACGACUGGUGAACCAUUUCUACACGAUAUUCAUACUUGGAAGUUUCAGGCAAGCCAGCCGAUAGUUCCAAAAAUACAGAUAAAUAAUACAACAGAGGAUUGAGCAUCA
B8: chr1:216680306:216680307:-_ENSG00000196482_ENST00000408911|hu_mus|FALSE|FALSE (ssRNA)
RNA: GGGAGUUCUACAGUCCGACGAUCUCAGACCUUGGCCUCCAGCAUUUCCAAAAAAAGUUUGUGCAUGGGCACUUUGCCUUCGAGUUUGAUGUUGUAGAAGUGCUGGACUGCCUUGGUGGAGGUCUGCCUCAGCAGCGGCAGCGUCAACAGAGGAUUGAGCAUCA
B9: chr4:124533079:124533080:-_ENSMUSG00000042763_ENSMUST00000064444|mus_mus|motif|central (ssRNA)
RNA: GGGAGUUCUACAGUCCGACGAUCUCCACUGUGCUAAAGCUAGCCAGCCUAGCCAUACACUGAUGUGUCCCAGACUGACCGGGUGGUCAGCACUUAGGAGAACUGGAAGAGGAAUGUGUACUGGCAUACACCAUUUCAUACUUACAACAGAGGAUUGAGCAUCA
B10: chr1:39494564:39494565:+_ENSG00000168653_ENST00000372967|hu_hu|hu_hu_hu_mus_True|18_88 (ssRNA)
RNA: GGGAGUUCUACAGUCCGACGAUCAUGCAUUCGCCUCAUCGUUUUGUGCCGAAGCAAGCACUCUUCGAAGUCAUCGAACUCUAUCUUGCACUCCUUUUUCGCCCGGGUCCCACCGAUUCCAUGUGCACACUCUAUCCACUCUUUCAACAGAGGAUUGAGCAUCA
B11: chr15:76911001:76911002:-_ENSMUSG00000033565_ENSMUST00000166610|mus_mus|motif|central (ssRNA)
RNA: GGGAGUUCUACAGUCCGACGAUCCUCAAGAGCAUGACAAAAGAAAACACACGUUUACAUUAGAUGUUCACCGUGCCCACGGUUGUUUCCUAUUUGAAAACAGUGCAAACAGGUAACUUAUGCUUUAAACACCAAGACCCCUUCCAACAGAGGAUUGAGCAUCA
B12: chr7:107556004:107556005:+_ENSG00000091140_ENST00000440410|hu_hu|motif|central (ssRNA)
RNA: GGGAGUUCUACAGUCCGACGAUCGAUGCGUUGAAAGUUUUUAGAUAUCUCCAUAUCAAUUCCAACUCCACCUACAUGACCGGAAAAUUCAACUGCUGUCACAUCUGCACCAAGUCUUUGCCAAACUGAACCCAAUUCUACACCCAACAGAGGAUUGAGCAUCA
B13: chr7:151048522:151048523:+_ENSG00000013374_ENST00000566856|hu_mus|hu_hu_hu_mus_True|8_38 (ssRNA)
RNA: GGGAGUUCUACAGUCCGACGAUCCUGUUUCUUAUUUAUUACGAUCUUGAUGUAAUUUUCUUGAAAUCCGAAAGUUUCAGCUAUUUGACACCUCAGGUCUCUGCCAGUGACAUGCAAGCGGGUCUCCAACAAGUUUUUCUUAUCCAACAGAGGAUUGAGCAUCA
B14: chr5:134191040:134191041:+_ENSG00000181904_ENST00000394976|hu_mus|FALSE|FALSE (ssRNA)
RNA: GGGAGUUCUACAGUCCGACGAUCAAAGGCAGCAGUGCCACAGCCAUAGCCAAGAUCUGCAAGGCGGGACAGAGCUUUAAUGCUACCUGGAGGUCUCCCUGGGCUGACUUUGUAUCCUGCAGCUUUGGUUGUACCCAAAGGUCUCAACAGAGGAUUGAGCAUCA
B15: chr2:151326667:151326668:-_ENSG00000115963_ENST00000263895|hu_mus|FALSE|FALSE (ssRNA)
RNA: GGGAGUUCUACAGUCCGACGAUCUUUAUUUGUCUUAUUUACACACGCCAAGGUGGCGACGUGAAAAAUGUCUCUGACGCUGUUUUCUGACUGUAAAGCUGAGCAUUCUAUGUAAGUGGCUGCUCCGAUCUGCUUGGCCAUAUUCAACAGAGGAUUGAGCAUCA
B16: 111930651_111930927_1848_CDS_ENSMUSG00000021270_ENSMUST00000094361|mouse|control|control (ssRNA)
RNA: GGGAGUUCUACAGUCCGACGAUCAACCACCUUUUCAACCUUCUUCUCCAAAAUAUCUUUCAUAAUUUUGCAGAGGUUCUCAAAUUUUGUCUUUUUCUCUUCCUGUUUCUUCUUUUCCUCUUCAUCUUCUGGAAGUUCCAGUCCCAACAGAGGAUUGAGCAUCA
B17: chr2:117093540:117093541:+_ENSMUSG00000027349_ENSMUST00000028825|mus_hu|FALSE|FALSE (ssRNA)
RNA: GGGAGUUCUACAGUCCGACGAUCCAUUGUAAUCGUUGUCUUGGGUGACAAAGCAUAACGCUUAGGCUGAUAAAUUCUUGCUAUAUCAUCUGUUUUUACCUUUGCUCUAUCAGACCAUCCAAAGGACUGUACAGUCACAUCUAACAACAGAGGAUUGAGCAUCA
B18: chr17:38556828:38556829:-_ENSG00000131747_ENST00000423485|hu_hu|FALSE|FALSE (ssRNA)
RNA: GGGAGUUCUACAGUCCGACGAUCGGUCCAUGUUCUGACGGGAAGCUCUGAGAUUUCAAUGGUUGUAGAAUUAAGAAUAGCUACUUCACCACUAAUCACAUAUUGAUUUGGAGCCAGUUCUUCAAUAGUACCCUUGAAGUUCUUCAACAGAGGAUUGAGCAUCA
B19: chr7:91259230:91259231:-_ENSMUSG00000038459_ENSMUST00000117085|mus_hu|FALSE|FALSE (ssRNA)
RNA: GGGAGUUCUACAGUCCGACGAUCCCCUUCAACCCAAAGGGGCUCCACGGCUCGGGGACAGCGCUCGUACAUCGCUAGGCCAUGGGAGAAAUCGAUGACCUCAUCCUCUGUACCAUGAAUGACCAACACAGGAGAGGUGACUUUCAACAGAGGAUUGAGCAUCA
B20: 35570361_35576005_1032_CDS_ENSG00000197056_ENST00000373330|human|control|control (ssRNA)
RNA: GGGAGUUCUACAGUCCGACGAUCAUUAAUAGAGCAGAAAAGCUCUGUCUUCCCCAAAUCACUCGUAGUCUCAAUCAUUUCAUCUGAGGGCUUCAAUGGUUUGCAAGGAACAGAUAUAAGUGGUUUGGCAGGUUUCUGCUUAUACAACAGAGGAUUGAGCAUCA
B21: chr16:23446027:23446028:-_ENSG00000168434_ENST00000307149|hu_hu|FALSE|FALSE (ssRNA)
RNA: GGGAGUUCUACAGUCCGACGAUCGUAGUAGGCCAGGAGCUGGGGCAUCCGGUCAAUUUCAGUAAACACCUUCACAAACACUUUGGACUGAUCUACAGCCUGAGAGGUGAAUGCCGCUACAAUCUGUGGACUGGCUAGGGCCUCCAACAGAGGAUUGAGCAUCA
B22: 87534184_87534304_1713_3pUTR_ENSMUSG00000037104_ENSMUST00000041369|mouse|control|control (ssRNA)
RNA: GGGAGUUCUACAGUCCGACGAUCGGGUCAUGGGCAUCGAAGCUGAAGUUGUGGUUCCACUGCUCGAUCCGGGCGUGCAGAGACCUGUUGUAGCGGCGGAAGCUCACAGAGAAGAGGUAGUCCUCCUGUGCAGAGUCCCUGAGCCAACAGAGGAUUGAGCAUCA

The list shows a part of the results.

In this test the target is T1, UNK ZnF1-3. Kind of test: nsRBNS (natural sequence RNA bind-n-seq); RBNS binding buffer (assumed for nsRBNS): 25 mM Tris pH 7.5, 150 mM KCl, 3 mM MgCl2, 0.01% Triton X-100, 500 ug/ml BSA, 20 U/ml SUPERase-In, 4 C; UNK is unkempt and MSI1 is Musashi-1; names of the RNAs are library labels; protein concentration not given here; high values mean tight binding.
In turn, B1 had a binding signal of 0.68 enrichment R. For B2 the value was 1.13 enrichment R; for B3, 1.7 enrichment R; for B4, 0.648 enrichment R. With B5 the figure was 1.06 enrichment R; with B6, 0.283 enrichment R; with B7, 0.843 enrichment R.

For B8, the binding signal was found to be 0.465 enrichment R.

On to B9, for which the binding signal was 0.547 enrichment R. With B10, the binding signal is 0.655 enrichment R. For B11 the value was 0.948 enrichment R. For B12 the value was 1.24 enrichment R. The molecule B13 had a binding signal of 0.713 enrichment R. Consider B14, for which the binding signal came out at 1.22 enrichment R.

In turn, B15 displayed a binding signal of 0.639 enrichment R. With B16 the figure was 0.489 enrichment R; with B17, 0.587 enrichment R; with B18, 1.12 enrichment R. Molecule B19 yielded a binding signal of 1.18 enrichment R.

On to B20, for which the binding signal was 0.791 enrichment R.

For B21, the binding signal came to 0.699 enrichment R.

In the case of B22, the binding signal was determined as 0.884 enrichment R.
